Reference: paper PMC10668032
The other results are listed elsewhere or left out. At the low end of the ranking the order means little.

Each sequence was assayed against SIX1-Q177R homeodomain (UniProt Q15475) (assay: universal protein binding microarray). Conditions: Universal all-10-mer PBM (8x60K, AMADID 030236), 300 nM GST-tagged protein, Alexa Fluor 488 anti-GST; buffer, salt, pH and temperature not stated; high values mean tight binding; most listed sequences are background and not binding sites; double strand, one strand shown.

| Sequence | binding signal |
| --- | --- |
| GACGTTTA | -0.121 E-score |
| GTGAGGAA | -0.0427 E-score |
| TCCCTCAA | 0.00936 E-score |
| ATCCTTCC | -0.132 E-score |
| GCAGTCTA | -0.223 E-score |
| AATGAGTA | -0.0919 E-score |
| ATGTATCG | -0.0358 E-score |
| ACGGATCG | 0.128 E-score |
| AGGCGGCA | -0.0211 E-score |
| GCCCTAGA | -0.104 E-score |
| CAGTTGGA | -0.126 E-score |
| ACGCATGG | 0.0703 E-score |
| AGCGAGTC | -0.101 E-score |
| CATCTGCC | -0.00291 E-score |
| AGGAACCA | -0.0172 E-score |
| TATAATGA | -0.11 E-score |
| CACACTCG | 0.353 E-score |
| GGTGGTTA | 0.103 E-score |
| CCCTCCAA | 0.0698 E-score |
| AAGCTCCC | -0.0335 E-score |
| CAACGCCA | 0.175 E-score |
| ACACTCAA | 0.39 E-score |
| ATTTTTCC | -0.134 E-score |
| GAGCTTGA | -0.177 E-score |
| CCCGCCGG | 0.245 E-score |

| Sequence | binding signal |
| --- | --- |
| CACTTTGA | 0.0743 E-score |
| ATAACTAT | -0.251 E-score |
| TAAACTCA | 0.0284 E-score |
| ACCGACCG | 0.00509 E-score |
| TATAAACA | 0.169 E-score |
| AGTTTAGC | -0.128 E-score |
| AGATGGCC | -0.0633 E-score |
| CAGGTCTC | -0.132 E-score |
| GCACTTAC | 0.113 E-score |
| AACGGGCA | -0.0113 E-score |
| CTGATAGA | -0.167 E-score |
| CCAATACC | 0.0218 E-score |
| ATGAATAA | -0.0713 E-score |
| CTCGAGTC | 0.0169 E-score |
| ATGCAACA | 0.139 E-score |
| AGCGCTCA | -0.301 E-score |
| AAAGTACA | -0.00211 E-score |
| CAGCTGGG | -0.00666 E-score |
| CTCTAAAC | -0.0553 E-score |
| GCGTCAAA | -0.00411 E-score |
| CTCCATGC | 0.0261 E-score |
| AGGCCTTC | -0.251 E-score |
| AACTACCT | -0.051 E-score |
| ACCTACAC | 0.43 E-score |
| ATATTTGC | -0.169 E-score |

| Sequence | binding signal |
| --- | --- |
| AGACCCGC | 0.0588 E-score |
| ACCAATCA | -0.0578 E-score |
| AAGACGAA | -0.262 E-score |
| AAGGAACC | 0.0483 E-score |
| CCCCCGAA | 0.238 E-score |
| CCTACCGA | -0.0459 E-score |
| AAATGCCA | -0.204 E-score |
| AGCCGCAG | -0.203 E-score |
| GAGGCAAA | -0.168 E-score |
| AGTGTACA | 0.418 E-score |
| GACTGTTA | -0.104 E-score |
| AACCGCGG | 0.138 E-score |
| CCCGAAGG | 0.193 E-score |
| GCATCCGC | -0.00277 E-score |
| CGTGAACA | 0.159 E-score |
| ATGATCTA | -0.0256 E-score |
| ATCCATTC | -0.189 E-score |
| GATTCGAA | -0.191 E-score |
| AATGTCAT | -0.333 E-score |
| ACGTAGTC | -0.0835 E-score |
| ATTATTGC | -0.0119 E-score |
| TCAACTAA | -0.183 E-score |
| GCGGCTAC | 0.0214 E-score |
| ACGACGAC | -0.171 E-score |
| AGACAAGG | 0.0303 E-score |

| Sequence | binding signal |
| --- | --- |
| CCGGTCCA | -0.12 E-score |
| CTACCTTA | 0.148 E-score |
| CAGCGACC | 0.0907 E-score |
| ACGGGGCA | 0.0112 E-score |
| AGCTAACC | -0.01 E-score |
| ATGGTGGG | 0.0232 E-score |
| GCAAGCGC | -0.112 E-score |
| CCAGCGGC | -0.237 E-score |
| GGACCTCA | -0.207 E-score |
| GAAGAATC | -0.206 E-score |
| CACTTGAG | 0.0805 E-score |
| CAGAGTGA | 0.0717 E-score |
| CAGTTAAA | -0.273 E-score |
| GCTCTCTA | -0.276 E-score |
| AAATCTCT | -0.111 E-score |
| CTGTAGAA | -0.0519 E-score |
| ATACGGCC | -0.0407 E-score |
| GGCGTCGA | 0.0573 E-score |
| ATTATTGA | -0.115 E-score |
| CTGGCTCA | -0.115 E-score |
| ATAATATG | -0.131 E-score |
| GAGATCCA | -0.0274 E-score |
| AATGTCCC | -0.115 E-score |
| GAGTGCGC | 0.0118 E-score |
| GACATACA | 0.114 E-score |

| Sequence | binding signal |
| --- | --- |
| ATCTCTCA | 0.0317 E-score |
| CGGCTATC | -0.14 E-score |
| CTATCAAA | -0.236 E-score |
| AGCAAAAC | -0.188 E-score |
| ATGGAAGA | -0.102 E-score |
| ATTATTCA | 0.0631 E-score |
| AGGTGGAT | 0.0507 E-score |
| ACATCAAT | -0.186 E-score |
| GTGGCCGA | -0.16 E-score |
| GTATAACA | 0.228 E-score |
| CCCGAATC | -0.00989 E-score |
| GAGGTACA | 0.252 E-score |
| AAGTGACC | 0.151 E-score |
| ACTATCAA | 0.0313 E-score |
| AAAATACA | 0.121 E-score |
| AGCTAGGG | 0.0311 E-score |
| ACAATGGA | 0.131 E-score |
| ACCCACGC | 0.171 E-score |
| CATGTTTC | -0.262 E-score |
| ATACCTTC | 0.146 E-score |
| ACGGGGGA | 0.208 E-score |
| GCGCCGCA | 0.109 E-score |
| GATATCCA | -0.00568 E-score |
| ACGAATAT | -0.183 E-score |
| CACTGCCA | 0.101 E-score |

| Sequence | binding signal |
| --- | --- |
| GCTTCGTA | -0.154 E-score |
| AGGAGGCA | -0.176 E-score |
| GGTTTAGA | 0.0315 E-score |
| ACTGGGAA | 0.12 E-score |
| ACGTGTGC | 0.16 E-score |
| ATCTGAAT | 0.0168 E-score |
| ACGAGGAT | -0.0644 E-score |
| ATTCGAAT | -0.362 E-score |
| CTAGCAGA | -0.196 E-score |
| GGGACTAC | -0.15 E-score |
| AGTTTCTA | -0.257 E-score |
| CTTAGTAC | 0.0868 E-score |
| AATAACTA | -0.203 E-score |
| GAGCTTGC | -0.116 E-score |
| CATCTCAC | 0.133 E-score |
| ATCGTGTA | 0.403 E-score |
| AGTCATAG | -0.0998 E-score |
| GAGGGAGA | -0.137 E-score |
| AATCTCCT | -0.205 E-score |
| AACACAAG | 0.0941 E-score |
| GACCAAAA | -0.121 E-score |
| AGCGGTAA | -0.143 E-score |
| ATGTTAGG | -0.136 E-score |
| AGCACCTC | 0.178 E-score |
| ACATAAGA | -0.197 E-score |

| Sequence | binding signal |
| --- | --- |
| AAGGGGGT | 0.293 E-score |
| ATGCTCCG | -0.153 E-score |
| AGCAGTCC | -0.306 E-score |
| TATACAGA | 0.11 E-score |
| CCTTCCAC | -0.0829 E-score |
| CAACGGGG | -0.0135 E-score |
| AGGAGTAC | 0.115 E-score |
| CGTAATAG | -0.123 E-score |
| TATGAAGA | -0.224 E-score |
| TACCAGCA | -0.168 E-score |
| ATCCGTGC | 0.0077 E-score |
| CACTAAAG | 0.185 E-score |
| GAGTACAA | 0.0825 E-score |
| AAGATATG | -0.165 E-score |
| AAATGGAA | -0.186 E-score |
| CCCCGGAC | 0.152 E-score |
| GAAAAGTA | -0.269 E-score |
| AGTTGACG | -0.225 E-score |
| GCCGAAGC | -0.124 E-score |
| AGCCTCTC | -0.11 E-score |
| ACGCAACA | 0.107 E-score |
| GTGACGAA | -0.194 E-score |
| ACCTAAAT | -0.0316 E-score |
| AAAACCAG | 0.0735 E-score |
| CAAGTGAC | 0.148 E-score |

| Sequence | binding signal |
| --- | --- |
| CCGTACAC | 0.418 E-score |
| GGCACGCA | -0.156 E-score |
| ACGTCAAA | -0.0746 E-score |
| CATACCCG | 0.151 E-score |
| TAGATCTA | -0.119 E-score |
| CAAGCCAG | -0.168 E-score |
| AGGGCAGA | -0.0799 E-score |
| CCTTGCAG | -0.0922 E-score |
| GTATTGAC | 0.0898 E-score |
| CTCCATAA | -0.112 E-score |
| ATCGCTGG | -0.0998 E-score |
| TGTTTGAA | -0.0362 E-score |
| ATCACGGG | -0.0683 E-score |
| AAGGACCT | 0.0451 E-score |
| CCAGCGAC | 0.065 E-score |
| GCGCGGCA | 0.0163 E-score |
| ACTCTGCT | -0.127 E-score |
| CCACCGTC | -0.18 E-score |
| CATCGTCC | -0.0897 E-score |
| TGAGGAAA | -0.174 E-score |
| AGGGAATG | -0.153 E-score |
| CATTTACC | 0.0461 E-score |
| GTTGGCAA | -0.108 E-score |
| AGAGGTAA | -0.134 E-score |
| CCCTTTCA | -0.0449 E-score |

| Sequence | binding signal |
| --- | --- |
| AATGTGTC | 0.136 E-score |
| CATTTATA | 0.0461 E-score |
| AATTAAGC | -0.11 E-score |
| ATATAGTC | -0.14 E-score |
| CCGGTCAG | -0.0905 E-score |
| GATTTAGC | -0.17 E-score |
| GACTCTCA | -0.0932 E-score |
| TCTATAAA | -0.212 E-score |
| AGACCTAG | -0.351 E-score |
| GCAATGCA | -0.047 E-score |
| GATCTTAC | 0.125 E-score |
| CACGAGCA | 0.242 E-score |
| CCCTCCCC | 0.13 E-score |
| CCCAGGCC | 0.00368 E-score |
| ACAAAGTA | -0.0604 E-score |
| GAATAAGA | -0.233 E-score |
| ATAAATGC | -0.152 E-score |
| ACATATAA | -0.166 E-score |
| ATGGAGCG | 0.0501 E-score |
